Data published in the supplement of paper PMC8047034.
Counter-ions that a name gives are not always drawn. Some of the results follow. Most values come without repeats; read them as rough.

Tests used:
[1] = tested on: OVCAR4; assay: log2 surviving fraction (library drug vs vehicle, or drug + carboplatin vs carboplatin alone; relative to plate median); ovarian cancer lines: OVCAR4 is platinum-sensitive and Ov4Carbo platinum-resistant; higher = more cell survival; settings: library drug concentration 10 µM, 7 days
[2] = tested on: Ov4Carbo; assay: as above; settings: library drug concentration 10 µM, 7 days

| Compound | log2 surviving fraction ([1]; carboplatin co-treatment 0 µM) | log2 surviving fraction ([1]; carboplatin co-treatment 5 µM) | log2 surviving fraction ([2]; carboplatin co-treatment 0 µM) | log2 surviving fraction ([2]; carboplatin co-treatment 5 µM) |
| --- | --- | --- | --- | --- |
| Nc1nccs1 [Aminothiazole] | 0.64 | 0.157 | 1.01 | -0.28 |
| NC[C@@H]1O[C@H](O[C@H]2[C@@H](O)[C@H](O[C@@H]3[C@@H](O)[C@H](N)C[C@H](N)[C@H]3O[C@H]3O[C@H](CO)[C@@H](O)[C@H](O)[C@H]3N)O[C@@H]2CO)[C@H](N)[C@@H](O)[C@@H]1O [Paromomycin Sulfate] | 0.0345 | -0.665 | -0.127 | 0.287 |
| CCCCNC(=O)NS(=O)(=O)c1ccc(C)cc1 [Tolbutamide] | 0.833 | 1.25 | 1.08 | 1.48 |
| Nc1c(CC(=O)O)cccc1C(=O)c1ccccc1 [Amfenac Sodium (monohydrate)] | -0.371 | 0.577 | 0.152 | 0.804 |
| CN(Cc1cc(Br)cc(Br)c1N)C1CCCCC1 [Bromhexine HCl] | 0.0511 | -0.733 | 0.2 | -0.498 |
| CCN(CC)CCOC(=O)C(c1ccccc1)c1ccccc1 [Adiphenine HCl] | 0.513 | -0.197 | 0.0252 | -0.0631 |
| COc1ccc([C@@H]2Sc3ccccc3N(CCN(C)C)C(=O)[C@@H]2OC(C)=O)cc1 [Diltiazem HCl (Tiazac)] | 0.318 | 0.476 | -0.361 | 0.229 |
| Cc1ccccc1C(=O)Nc1ccc(C(=O)N2CCCC(O)c3cc(Cl)ccc32)c(C)c1 (stereo unspecified) | -1.12 | 0.333 | -0.0247 | -0.0615 |
| O=C1[C@H](CC[C@H](O)c2ccc(F)cc2)[C@@H](c2ccc(O)cc2)N1c1ccc(F)cc1 [Ezetimibe (Zetia)] | -0.154 | -0.521 | 0.305 | -0.211 |
| CC(=O)OCC1=C(C(=O)O)N2C(=O)[C@@H](NC(=O)CSc3ccncc3)[C@H]2SC1 [Cephapirin Sodium] | -0.614 | -0.388 | -0.145 | -2.3 |
| O=c1[nH]cnc2c1ncn2[C@H]1CC[C@@H](CO)O1 [Didanosine (Videx)] | -3.22 | -2.01 | -0.324 | -0.145 |
| CCCc1nn(C)c2c(=O)[nH]c(-c3cc(S(=O)(=O)N4CCN(C)CC4)ccc3OCC)nc12 [Sildenafil citrate] | 0.181 | 1.24 | 1.43 | 0.307 |
| COc1ccc2c(c1)c(CC(=O)O)c(C)n2C(=O)c1ccc(Cl)cc1 [Indomethacin (Indocid, Indocin)] | 0.329 | 0.571 | 1.37 | 1.22 |
| CNC[C@@H](O)c1ccc(O)c(O)c1 [L-Adrenaline (Epinephrine)] | -0.743 | -0.621 | -0.11 | 0.566 |
| Cc1nccn1CC1CCc2c(c3ccccc3n2C)C1=O (stereo unspecified) [Ondansetron hydrochloride (Zofran)] | 0.74 | 0.253 | 0.768 | 0.378 |
| O=c1ccc2ccccc2o1 [Coumarin] | 0.981 | -0.161 | -1.13 | -0.333 |
| Cc1nnc(C(=O)NC(C)(C)c2nc(C(=O)NCc3ccc(F)cc3)c(O)c(=O)n2C)o1 [Raltegravir (MK-0518)] | 0.411 | 1.2 | -1.3 | 2.47 |
| NC(CO)C(=O)NNCc1ccc(O)c(O)c1O (stereo unspecified) [Benserazide] | 1.26 | 1.04 | 1.87 | 1.98 |
| CSc1nc2cc(Cl)c(Oc3cccc(Cl)c3Cl)cc2[nH]1 [Triclabendazole] | 0.0637 | -0.139 | -0.124 | -0.25 |
| CC1(C)O[C@@H]2C[C@H]3[C@@H]4CCC5=CC(=O)C=C[C@]5(C)[C@H]4[C@@H](O)C[C@]3(C)[C@]2(C(=O)CO)O1 [Desonide] | -2.77 | -0.274 | -0.411 | -0.163 |
| CN(C)CCC(c1ccc(Br)cc1)c1ccccn1 (stereo unspecified) [Brompheniramine] | -0.436 | 0.0503 | 0.94 | -0.0171 |
| O=C(O)C[C@H](O)C[C@H](O)/C=C/c1c(C2CC2)nc2ccccc2c1-c1ccc(F)cc1 [Pitavastatin calcium (Livalo)] | -6.08 | -5.51 | -5.57 | -5.17 |
| COc1ccc(C[C@@H]2c3cc(OC)c(OC)cc3CC[N@+]2(C)CCC(=O)OCCCCCOC(=O)CC[N@@+]2(C)CCc3cc(OC)c(OC)cc3[C@H]2Cc2ccc(OC)c(OC)c2)cc1OC [Cisatracurium besylate (Nimbex)] | -0.572 | -0.653 | -0.81 | -1.18 |
| NC[C@H](O)c1ccc(O)c(O)c1 [Noradrenaline bitartrate monohydrate (Levophed)] | -1.14 | -0.484 | 0.732 | -0.218 |
